{
  "source": "PubChem BioAssay AID720709",
  "about": "(National Center for Advancing Translational Sciences (NCATS), 2013)",
  "note": "About 520 (0.14%) of roughly 360,000 compounds were called active. Inconclusive results, whose numbers are uncertain, are shown with a selection of clear calls. The call rests on the fitted dose curve; in most records, active means well fitted inhibition curve with a large enough effect; inconclusive means small, poorly fitted or top-dose-only effect; inactive means no such curve, though single readings can be large or run the other way. Potencies of inconclusive entries are left out as doubtful fits. Potency means the concentration at half of the fitted maximal effect; tags describe the fitted curve by direction and shape.",
  "data": [
    {"target": "Rap guanine nucleotide exchange factor 3 (Homo sapiens) (UniProt O95398)", "sequence (O95398 whole entry, looked up)": "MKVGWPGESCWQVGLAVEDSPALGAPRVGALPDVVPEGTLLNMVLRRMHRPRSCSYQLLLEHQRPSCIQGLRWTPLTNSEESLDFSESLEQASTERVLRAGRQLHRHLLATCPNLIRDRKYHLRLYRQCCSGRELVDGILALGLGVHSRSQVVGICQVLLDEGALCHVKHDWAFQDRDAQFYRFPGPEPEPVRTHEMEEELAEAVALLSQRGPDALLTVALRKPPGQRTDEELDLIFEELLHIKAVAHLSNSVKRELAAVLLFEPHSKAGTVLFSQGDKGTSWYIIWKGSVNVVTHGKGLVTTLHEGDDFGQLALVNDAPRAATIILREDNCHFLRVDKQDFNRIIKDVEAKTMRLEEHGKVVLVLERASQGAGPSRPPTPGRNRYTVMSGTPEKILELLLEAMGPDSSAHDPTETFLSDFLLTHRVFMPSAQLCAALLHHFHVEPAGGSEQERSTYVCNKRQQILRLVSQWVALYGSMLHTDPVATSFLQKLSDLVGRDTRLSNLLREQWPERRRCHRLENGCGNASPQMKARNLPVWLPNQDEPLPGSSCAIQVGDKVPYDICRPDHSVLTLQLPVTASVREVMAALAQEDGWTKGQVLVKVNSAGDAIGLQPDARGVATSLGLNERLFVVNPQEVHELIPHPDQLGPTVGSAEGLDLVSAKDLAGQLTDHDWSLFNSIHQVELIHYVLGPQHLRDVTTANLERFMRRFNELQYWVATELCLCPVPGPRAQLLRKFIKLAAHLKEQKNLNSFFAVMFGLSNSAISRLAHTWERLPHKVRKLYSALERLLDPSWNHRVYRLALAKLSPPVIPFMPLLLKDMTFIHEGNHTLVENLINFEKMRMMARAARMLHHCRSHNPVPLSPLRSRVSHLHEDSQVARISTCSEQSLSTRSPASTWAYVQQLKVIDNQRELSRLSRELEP", "experiment": "qHTS for Antagonist of cAMP-regulated guanine nucleotide exchange factor 3 (EPAC1): primary screen; further: nearly all actives have a fitted effect of over 50% in size", "conditions": "EPAC1 GEF assay, Rap1b-BODIPY-GDP exchange fluorescence; series mostly up to 115 µM", "values": [
      {"smiles": "O=C(Nc1nccs1)c1ccc(-c2ccccc2[N+](=O)[O-])o1", "Potency": "inconclusive [inhibitor, single point]"},
      {"smiles": "CCOC(=O)C1=C(CSc2nc3c(cc2C#N)CN(C)CC3)OC(N)=C(C#N)C1c1ccccc1", "note": "(centres undefined)", "Potency": "inconclusive [inhibitor, single point]"},
      {"smiles": "CCOC(=O)c1c(C)[nH]c(N=Nc2cccc(C)c2)c1C", "Potency": "inconclusive [inhibitor, partial curve]"},
      {"smiles": "O=C(OCc1ccc2c(c1)OCO2)c1ccc(S(=O)(=O)N2CCCC2)cc1", "Potency": "inactive"},
      {"smiles": "O=C(c1ccc(-c2ccccc2)cc1)N1CCN(c2ncccn2)CC1", "Potency": "inactive"},
      {"smiles": "N=c1occ(C(=O)c2cc(F)ccc2O)cc1C(=O)NC1CCCCC1", "Potency": "inconclusive [inhibitor, single point]"},
      {"smiles": "CCN(CC)C(=O)CSc1nnc(-c2cc(-c3ccc(Cl)cc3)nc3ccccc23)o1", "Potency": "inconclusive [inhibitor, full curve, poor fit]"},
      {"smiles": "CC(C)[C@@H](NC(=O)OC(C)(C)C)c1cc(C(=O)c2c(-c3ccccc3)[nH]c3ccccc23)c(N)s1", "Potency": "inactive"},
      {"smiles": "COC(=O)c1cc2c(-c3ccccc3)cc3ccccn3c-2c1C(=O)OC", "Potency": "inactive"},
      {"smiles": "Cc1cc(NC(=O)c2cc(-c3ccco3)on2)no1", "Potency": "inconclusive [inhibitor, partial curve]"},
      {"smiles": "CCn1c2ccccc2c2nnc(SCC(=O)N(C)C3CCS(=O)(=O)C3)nc21", "note": "(centres undefined)", "Potency": "inconclusive [inhibitor, single point]"},
      {"smiles": "Cc1ccc(C(=O)N2CC(C)CC(C)C2)cc1S(=O)(=O)N1CCCCC1", "note": "(centres undefined)", "Potency": "inconclusive [inhibitor, single point]"},
      {"smiles": "CS(=O)(=O)c1cc([N+](=O)[O-])c(Sc2nc3ccccc3[nH]2)c([N+](=O)[O-])c1", "Potency": "inactive"},
      {"smiles": "O=c1c2c3nc4ccccc4nc3n(Cc3ccccc3)c2ncn1Cc1ccco1", "Potency": "inconclusive [inhibitor, partial curve]"},
      {"smiles": "O=C(NCCc1c[nH]c2ccccc12)c1[nH]c(C(F)(F)F)nc1-c1ccccc1", "Potency": "inconclusive [inhibitor, full curve, poor fit]"},
      {"smiles": "COC(=O)[C@@]1(Cc2ccc(F)cc2)[C@H]2c3cc(C(=O)N4CCCC4)n(CCCNc4ncc(C(F)(F)F)cc4Cl)c3C[C@H]2CN1C(=O)c1ccccc1", "Potency": "inconclusive [inhibitor, partial curve]"},
      {"smiles": "COc1cc(NC(=O)n2ncc3cc(Cl)ccc32)cc(OC)c1", "Potency": "inconclusive [inhibitor, partial curve]"},
      {"smiles": "O=C(c1cccs1)N1CCCC(c2nc3c(nnn3Cc3c(Cl)cccc3Cl)c(=O)[nH]2)C1", "note": "(centres undefined)", "Potency": "inconclusive [inhibitor, single point]"},
      {"smiles": "COc1cccc(CNC(=O)CN2C(=O)COc3ccc(S(=O)(=O)N4CCC(C)CC4)cc32)c1", "Potency": "inconclusive [inhibitor, partial curve]"},
      {"smiles": "Cc1ccccc1C(=O)NNC(=O)c1cc(S(=O)(=O)N2CCOCC2)ccc1C", "Potency": "inconclusive [inhibitor, single point]"},
      {"smiles": "Cc1ccc([N+](=O)[O-])cc1NC(=O)CCc1ccccc1", "Potency": "inconclusive [inhibitor, full curve, poor fit]"},
      {"smiles": "S=C(NCc1ccc2[nH]c3c(c2c1)CCCC3)Nc1ccccc1", "Potency": "inconclusive [inhibitor, single point]"},
      {"smiles": "O=C(Nc1cccc(NC(=O)c2ccco2)c1)c1ccc2c(c1)OCCO2", "Potency": "inconclusive [inhibitor, partial curve, poor fit]"},
      {"smiles": "O=C(CSc1nc2ccccc2c(=O)n1CC1CCCCC1)N1CCOCC1", "Potency": "inconclusive [inhibitor, full curve, poor fit]"},
      {"smiles": "COc1cc(/C=C2\\SC(=O)N(CC(=O)Nc3cccc(C)c3)C2=O)cc([N+](=O)[O-])c1O", "Potency": "inconclusive [inhibitor, partial curve]"},
      {"smiles": "COc1ccccc1NC(=S)NNC(=S)Nc1ccc(OC(F)F)cc1", "Potency": "inconclusive [inhibitor, single point]"},
      {"smiles": "CCCc1ccc(C(=O)Cn2nc(C(=O)O)c3ccccc3c2=O)cc1", "Potency": "inconclusive [inhibitor, partial curve, poor fit]"},
      {"smiles": "COc1ccccc1OCCSc1nnc(CNC(=O)c2ccco2)n1C", "Potency": "inconclusive [inhibitor, full curve]"},
      {"smiles": "CCN(CC)c1cc2c(c3c1ccn3C)C1CCC2O1", "note": "(centres undefined)", "Potency": "inconclusive [inhibitor, partial curve, poor fit]"},
      {"smiles": "CC(NCC(=O)Nc1ccccc1C(=O)NC1CC1)c1ccc(S(C)(=O)=O)cc1", "note": "(centres undefined)", "Potency": "inconclusive [inhibitor, full curve, poor fit]"},
      {"smiles": "CC(C)C(=O)N1CCN(c2ccccc2NC(=O)c2ccc3c(c2)OCCO3)CC1", "Potency": "inconclusive [inhibitor, partial curve]"},
      {"smiles": "COc1cccc(C2=CC(=O)CC(c3ccco3)C2)c1", "note": "(centres undefined)", "Potency": "inactive"},
      {"smiles": "CCCn1c(NCc2ccco2)nc2ccccc21", "Potency": "inconclusive [inhibitor, single point]"},
      {"smiles": "Cc1cccc2c1N(CCCOc1ccccc1)C(=O)C2=O", "Potency": "inconclusive [inhibitor, partial curve]"},
      {"smiles": "NC(=NCCc1c[nH]c2ccccc12)NS(=O)(=O)c1cc(F)ccc1F", "Potency": "inconclusive [inhibitor, partial curve]"},
      {"smiles": "Oc1ccccc1-c1nnc(COc2ccc(Cl)cc2Cl)o1", "Potency": "inconclusive [inhibitor, partial curve, poor fit]"},
      {"smiles": "CCC1(C)NC(=O)N(CC(=O)Nc2sc3c(c2C(=O)OC)CCCCC3)C1=O", "note": "(centres undefined)", "Potency": "inconclusive [inhibitor, single point]"},
      {"smiles": "COc1ccc(OCC(=O)NCCCCCCNC(=O)COc2ccc(OC)cc2)cc1", "Potency": "inconclusive [inhibitor, partial curve]"},
      {"smiles": "COc1cccc(C(=O)NCCSCc2ccccc2Cl)c1", "Potency": "inconclusive [inhibitor, full curve]"}
    ]}
  ]
}
